In all, about 370,000 compounds went through this assay and about 150 (0.041%) were called active. Inconclusive results, whose numbers are uncertain, are shown with a selection of clear calls. The call rests on the fitted dose curve; in most records, active means well fitted inhibition curve with a large enough effect; inconclusive means small, poorly fitted or top-dose-only effect; inactive means flat fitted curve, though single readings scatter. No potency is given beside an inconclusive call; the fits are too rough.
Target: Beta-lactamase (Escherichia coli (strain K12)) (UniProt P00811)
Test: qHTS Inhibitors of AmpC Beta-Lactamase (assay with detergent); further: nearly all actives have a fitted effect of over 25% in size;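 on activity change, negative = inhibition: 0% = no-compound wells and -100% = no-enzyme wells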
Settings: AmpC hydrolysis of nitrocefin, absorbance 480 nm, 0.01% Triton; activity change, negative = inhibition: at 114 µM (top of the series)
Procedure, shortened: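 20 mM phosphate pH 7.0 + 0.01% (detergent screen) or 0.0001% Triton X-100; 5.3 nM AmpC reagent; cpd preinc 15 min RT; nitrocefin (800 uM stock) to start; A480 q20 s × 4 min; Activity was normalised to no-enzyme and no-compound control wells.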
Potency means the concentration at half of the fitted maximal effect; tags describe the fitted curve by direction and shape.

Sequence of UniProt P00811 (P00811 whole entry, looked up): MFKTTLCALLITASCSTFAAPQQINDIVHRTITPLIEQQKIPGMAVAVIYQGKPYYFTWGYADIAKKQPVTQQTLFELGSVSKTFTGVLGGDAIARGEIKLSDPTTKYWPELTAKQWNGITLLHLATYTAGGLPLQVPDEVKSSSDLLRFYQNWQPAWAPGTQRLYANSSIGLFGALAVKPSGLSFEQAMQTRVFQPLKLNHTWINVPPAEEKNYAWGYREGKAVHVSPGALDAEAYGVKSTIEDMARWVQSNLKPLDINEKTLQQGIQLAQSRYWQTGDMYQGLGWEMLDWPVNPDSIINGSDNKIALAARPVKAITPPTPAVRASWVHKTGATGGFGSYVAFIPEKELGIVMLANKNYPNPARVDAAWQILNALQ

Row | SMILES | activity change, negative = inhibition | Potency
1 | O=C(NCc1ccc(Cl)cc1)C1CCN(c2nn3cc(-c4ccc(F)cc4)nc3s2)CC1 | inactive: -4.34% | 
2 | O=c1[nH]c(CN2CCNCC2)nc2ccccc12 |  | inconclusive [inhibitor, full curve]
3 | Cc1onc(-c2ccccc2)c1C(=O)N/N=C/c1cccs1 | inactive: 0.841% | 
4 | Cc1nc2ccc(C(=O)N/N=C/c3cc([N+](=O)[O-])ccc3O)cc2[nH]1 | inactive: -9.1% | 
5 | CC(=O)NNc1ncnc2c1cnn2-c1ccc(C)c(Cl)c1 | inactive: -1.08% | 
6 | CCCCCCCCC(=O)Nc1cc(C)ccc1OC |  | inconclusive [inhibitor, partial curve, poor fit]
7 | COC(=O)c1cc(Cl)c(NC(=O)/C=C/c2ccc(OC)cc2)cc1OC |  | inconclusive [inhibitor, full curve]
8 | COc1ccc(NC(=O)c2oc3ccc(S(=O)(=O)N4CCC5(CC4)OCCO5)cc3c2C)cc1 | inactive: -2.65% | 
9 | CCN(CC(=O)Nc1ccc(C)c(S(=O)(=O)N(C)C)c1)Cc1ccccc1 |  | inconclusive [inhibitor, full curve, poor fit]
10 | CCOC(=O)C1=C(COC(=O)/C=C/c2ccccc2F)NC(=O)NC1C (configuration not stated) |  | inconclusive [inhibitor, partial curve, poor fit]
11 | CCNC(=O)N1CCC(n2nccc2NC(=O)CCOc2ccccc2)CC1 |  | inconclusive [inhibitor, full curve, poor fit]
12 | Cc1ccc(Cn2cccc(NC(=O)NCc3ccccc3)c2=O)cc1 |  | inconclusive [inhibitor, partial curve, poor fit]
13 | Cc1c(NC(=O)C(C)OC(=O)/C=C/c2ccccc2)c(=O)n(-c2ccccc2)n1C (configuration not stated) | inactive: 2.26% | 
14 | O=C(c1ccc(S(=O)(=O)N2CCCC2)cc1)N(c1ccccc1)C1C=CS(=O)(=O)C1 (configuration not stated) |  | inconclusive [inhibitor, partial curve, poor fit]
15 | O=C(NNC(=O)c1cc(-c2ccccc2)nc2ccccc12)Nc1cccc(Cl)c1 | inactive: 0.642% | 
16 | Cc1cc(C)cc(C(=O)OCC(=O)Nc2cccc(S(=O)(=O)NC3=NCCCCC3)c2)c1 |  | inconclusive [inhibitor, partial curve, poor fit]
17 | COc1cc(C)nc(Oc2ccc(=O)[nH]n2)n1 |  | inconclusive [inhibitor, full curve, poor fit]
18 | COc1ccc(/C=N/NC(=O)CNc2ccc(Br)cc2)c(C(=O)O)c1OC | inactive: 9.62% | 
19 | CCC(CO)NCc1sccc1C (configuration not stated) |  | inconclusive [inhibitor, full curve, poor fit]
20 | COC(=O)c1[nH]c2ccccc2c1NC(=O)C(C)N1CCN(C(=O)c2ccco2)CC1 (configuration not stated) | inactive: -1.77% | 
21 | CN(C)c1ccc(CN(C(=O)C2COc3ccccc3O2)C2CCS(=O)(=O)C2)cc1 (configuration not stated) | inactive: 6.53% | 

Row | SMILES | activity change, negative = inhibition | Potency
22 | COc1ccccc1Cn1c(C)nc2ccccc21 | inactive: -0.276% | 
23 | CC/C(C)=N/Nc1cccc([N+](=O)[O-])c1 |  | inconclusive [inhibitor, full curve, poor fit]
24 | Cn1c(=O)n(C)c2cc(S(=O)(=O)NCCc3ccccc3)ccc21 |  | inconclusive [inhibitor, full curve, poor fit]
25 | CCN(CC(=O)Nc1ccc2c(c1)OCCO2)Cc1nc2cc(Cl)ccc2c(=O)[nH]1 |  | inconclusive [inhibitor, full curve, poor fit]
26 | CC(C)CCn1c(=O)c2ccccc2n2c(COC(=O)c3ccc(S(=O)(=O)N(C)C)cc3)nnc12 | inactive: -2% | 
27 | Cc1cc(N2CCN(C(=O)c3ccco3)CC2)n2nc(C)c(-c3ccc(Cl)cc3)c2n1 |  | inconclusive [inhibitor, full curve]
28 | COC(=O)Nc1sc2c(c1C(=O)NCc1ccco1)CCCC2 |  | inconclusive [inhibitor, full curve, poor fit]
29 | Cc1nonc1OCCn1c([N+](=O)[O-])cnc1C |  | inconclusive [inhibitor, single point]
30 | COc1cccc(-c2nc(CS(=O)(=O)CC(=O)N3CCN(c4ccccn4)CC3)c(C)o2)c1 |  | inconclusive [inhibitor, full curve]
31 | N#Cc1cccc(NC(=O)COC(=O)c2ccc3c(=O)n4c(nc3c2)CCC4)c1 |  | inconclusive [inhibitor, partial curve, poor fit]
32 | Cc1ccc(C)c(NC(=O)Nn2cnnc2)c1 |  | inconclusive [inhibitor, full curve, poor fit]
33 | CCOC(=O)C(CCSC)NC(=O)CN (configuration not stated) |  | inconclusive [inhibitor, full curve, poor fit]
34 | CC(C)(C)NC(=O)C1N(c2cccnc2)C(=O)C2C(C(=O)Nc3ccccc3F)C3(C)C=CC21O3 (configuration not stated) |  | inconclusive [inhibitor, full curve, poor fit]
35 | C#CCOCCOCCOCCNc1nc(N2CCOCC2)nc(N2CCN(C(=O)CCCCCCCCCCNC(=O)[C@H](CO)n3cc(CCCCCN)nn3)CC2)n1 |  | inconclusive [inhibitor, single point]
36 | COc1ccc(NC(=O)c2c(NC(=O)C(F)(F)F)sc3c2CCCCC3)cc1 | inactive: 11.2% | 
37 | O=C(C(=O)N1CCOCC1)c1cn(CCCOc2ccccc2)c2ccccc12 | inactive: 0.27% | 
38 | CC(C)CCN(C(=O)c1ccc(N2CCCC2=O)cc1)c1c(N)n(Cc2ccccc2)c(=O)[nH]c1=O |  | inconclusive [inhibitor, full curve]
39 | Cc1cc(C(=O)NNC(=S)Nc2ccccc2C)cs1 |  | inconclusive [inhibitor, full curve, poor fit]
40 | O=C(O)CSC1=NC(=Nc2cccc(Cl)c2)C2(CCCCC2)N1c1ccccc1 |  | inconclusive [inhibitor, partial curve]
41 | COc1cc(CNc2ncc(-c3ccc(Cl)cc3)n2C)cc(OC)c1OC |  | inconclusive [inhibitor, partial curve, poor fit]
42 | N=C1/C(=C\c2ccc(OC(=O)c3ccccc3)cc2)C(=O)N=C2SC(N3CCOCC3)=NN12 | inactive: -12.2% | 

From PubChem BioAssay AID485294 (National Center for Advancing Translational Sciences (NCATS), 2010)
